# Test results from a collection of fitness landscapes (doi:10.1016/j.celrep.2020.107928).
# The full ranking holds about 81,000 sequences; the median of “one-hybrid fitness for binding NBS DNA” is about -0.1, and the highest 2% start at about 0.36. The list shows a part of the results.
# B1: Caulobacter ParB omega fusion; a variant is named by its letters at X, in order, B8GW30 (parent)
# chain: MESVVVGEPGMSEGRRGLGRGLSALLGEVDAAPAQAPGEQLGGSREAPIEILQRNPDQPRRTFREEDLEDLSNSIREKGVLQPILVRPSPDTAGEYQIVAGERAWRAAQRAGLKTVPIMVRELDDLAVLEIGIIENVQRADLNVLEEALSYKVLMEKFERTQENIAQTIGKSXSHVANXMRLLXLPDEVQSYLVSGELTAXHARAIAAAADPVALAKQIIEGGLSVRETEALARKAPNLSAGKSKGGRPPRVKDTDTQALESDLSSVLGLDVSIDHRGSTGTLTITYATLEQLDDLCNRLTRGI
# Variants of: B1
# Experiment: one-hybrid fitness for binding NBS DNA (the Noc-binding site; scaled: cognate 1, non-cognate 0); higher = stronger binding
# Conditions: with NBS DNA site
# Summary of the method: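 Bacterial one-hybrid selection in E. coli USO rpoZ- hisB- pyrF- with a HIS3 reporter carrying the site 19 bp from the promoter, screening Caulobacter ParB libraries with four specificity codons randomised (NNS). Cells grew 48 hours at 37°C on M9-minus-histidine plus 0.1 mM IPTG and 5 mM 3-AT. Plasmids before and after selection were Illumina-sequenced, three replicate libraries pooled, and variants under 10 reads dropped. Fitness is the log change in variant-to-wild-type read ratio, rescaled to cognate 1, non-cognate 0.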
row,Variant,one-hybrid fitness for binding NBS DNA
1,RYKM,0.206
2,ISNL,≤ 0.2
3,QCTT,0.486
4,IGTT,≤ 0.2
5,NNPN,≤ 0.2
6,SGEF,≤ 0.2
7,KFKC,≤ 0.2
8,STAY,≤ 0.2
9,ERTG,≤ 0.2
10,QPLW,≤ 0.2
11,CQNK,≤ 0.2
12,WPLI,≤ 0.2
13,QRAF,0.302
14,QLVV,≤ 0.2
15,RLWE,≤ 0.2
16,SAPY,≤ 0.2
17,HCDN,≤ 0.2
18,PQPG,≤ 0.2
19,RFKC,≤ 0.2
20,NTTM,≤ 0.2
21,RLCG,≤ 0.2
22,KTKR,0.555
23,RISD,≤ 0.2
24,IARS,≤ 0.2
25,CLDT,≤ 0.2
26,GFDG,≤ 0.2

row,Variant,one-hybrid fitness for binding NBS DNA
1,CPFR,≤ 0.2
2,WNSG,≤ 0.2
3,GIGS,≤ 0.2
4,YYQR,≤ 0.2
5,SASK,≤ 0.2
6,QLGS,0.322
7,TAGV,≤ 0.2
8,RQKV,0.237
9,LDEQ,≤ 0.2
10,DRES,≤ 0.2
11,NHSY,≤ 0.2
12,YDVW,≤ 0.2
13,PVQC,≤ 0.2
14,FQDC,≤ 0.2
15,ISES,≤ 0.2
16,YKIS,≤ 0.2
17,FAQL,≤ 0.2
18,TEEA,≤ 0.2
19,PHAW,≤ 0.2
20,THPQ,≤ 0.2
21,NASC,≤ 0.2
22,SYQS,≤ 0.2
23,PRKL,≤ 0.2
24,ASKS,≤ 0.2
25,SEVG,≤ 0.2
26,SEHT,≤ 0.2

row,Variant,one-hybrid fitness for binding NBS DNA
1,CSCG,≤ 0.2
2,ANRL,≤ 0.2
3,LTAD,≤ 0.2
4,YREE,≤ 0.2
5,QTKI,0.468
6,LQMV,≤ 0.2
7,MHVY,≤ 0.2
8,FTSQ,≤ 0.2
9,DTQF,≤ 0.2
10,PEKM,≤ 0.2
11,ALSA,≤ 0.2
12,RTVH,≤ 0.2
13,IQMT,≤ 0.2
14,QQYM,≤ 0.2
15,IADR,≤ 0.2
16,GVYF,≤ 0.2
17,TDNS,≤ 0.2
18,NPLY,≤ 0.2
19,SNQS,≤ 0.2
20,IFSA,≤ 0.2
21,SYNR,≤ 0.2
22,CAYG,≤ 0.2
23,PFQT,≤ 0.2
24,QEDS,≤ 0.2
25,NIPY,≤ 0.2
26,LWAY,≤ 0.2

row,Variant,one-hybrid fitness for binding NBS DNA
1,MIGI,≤ 0.2
2,MSIS,≤ 0.2
3,MCNS,≤ 0.2
4,NFQG,≤ 0.2
5,SGTV,≤ 0.2
6,QMIP,≤ 0.2
7,PHRS,≤ 0.2
8,PKTH,≤ 0.2
9,LEKT,≤ 0.2
10,FNAV,≤ 0.2
11,PCLS,≤ 0.2
12,SRAH,≤ 0.2
13,NDRT,≤ 0.2
14,KNTR,≤ 0.2
15,AAIM,≤ 0.2
16,DVTT,≤ 0.2
17,QWAF,≤ 0.2
18,LYRE,≤ 0.2
19,YSFC,≤ 0.2
20,DTEG,≤ 0.2
21,DITL,≤ 0.2
22,TWKV,≤ 0.2
23,TPSL,≤ 0.2
24,PFVG,≤ 0.2
25,HHGY,≤ 0.2
26,QCGH,0.282

row,Variant,one-hybrid fitness for binding NBS DNA
1,HAKT,≤ 0.2
2,RTCP,≤ 0.2
3,FATW,≤ 0.2
4,ALFC,≤ 0.2
5,CYAT,≤ 0.2
6,AMAN,≤ 0.2
7,HYTA,≤ 0.2
8,TWEE,≤ 0.2
9,RYHH,≤ 0.2
10,VTTR,≤ 0.2
11,QDPS,≤ 0.2
12,NSKT,≤ 0.2
13,PGLS,≤ 0.2
14,DQNL,≤ 0.2
15,SLKQ,≤ 0.2
16,ACLY,≤ 0.2
17,RWAQ,≤ 0.2
18,TPFD,≤ 0.2
19,STNQ,≤ 0.2
20,CYPR,≤ 0.2
21,HPPE,≤ 0.2
22,TFPS,≤ 0.2
23,ASAL,≤ 0.2
24,ESIP,≤ 0.2
25,RVTC,≤ 0.2
26,PAES,≤ 0.2

row,Variant,one-hybrid fitness for binding NBS DNA
1,RSLE,≤ 0.2
2,GNDK,≤ 0.2
3,MNHL,≤ 0.2
4,PTPP,≤ 0.2
5,ARWL,≤ 0.2
6,SFFV,≤ 0.2
7,ASHL,≤ 0.2
8,DCNS,≤ 0.2
9,SHIT,≤ 0.2
10,TSVI,≤ 0.2
11,QCHM,≤ 0.2
12,SIVR,≤ 0.2
13,SGNT,≤ 0.2
14,CPVS,≤ 0.2
15,VHVF,≤ 0.2
16,HVKN,≤ 0.2
17,PALH,≤ 0.2
18,DFMA,≤ 0.2
19,FNFR,≤ 0.2
20,WAHR,≤ 0.2
21,LEQR,≤ 0.2
22,PGQR,≤ 0.2
23,IQTR,≤ 0.2
